The campaign covered roughly 150,000 compounds. About 540 (0.36%) showed an effect of 50% or more. Some of the results follow.
system: Plasmodium falciparum; assay: Primary screen in NF54 nanoGlo assay, in single point, at 2uM, 72h; a lower Z score goes with more inhibition; assay type: functional, Erythrocyte; settings: timepoint 72 hour

Row | SMILES | % Inhibition | Z score
1 | NC(=O)C1(NC(=O)c2ccc3nc(-c4ccccc4)cn3c2)CCCC1 | 0% | -0.09
2 | CNC(=NCCOC1CCCCC1C)NC (centres undefined) | -4% | 0.79
3 | CCc1cccc2c(=O)cc(C(C)C)n(Cc3nnc4n3CCOC4)c12 | 2% | -0.23
4 | O=S(=O)(Cc1cccc(F)c1F)N1CCC(c2nnc3n2CCNC3)CC1 | -15% | 1.56
5 | CCCn1nnc2cc(S(=O)(=O)N3CCC(C(=O)Nc4cccc(Cl)c4C)CC3)ccc21 | -1% | 0.1
6 | Cc1noc(C)c1CN(C)C(=O)c1cc(=O)[nH]c2ccc(F)cc12 | -7% | 1.3
7 | Cc1ncc(C(=O)N(CCO)Cc2nccn2C)c(C)n1 | 1% | -0.09
8 | CCN1C(=O)c2cc(S(=O)(=O)Nc3ccc(F)c(C)c3)ccc2Oc2cccnc21 | -10% | 1.79
9 | Cc1cc(-c2nc([C@H]3CCOC3)no2)cc(C)n1 | -10% | 0.9
10 | Cc1cc(F)ccc1NC(=O)c1nn(-c2ccc(F)cc2)c2ccccc2c1=O | 1% | -0.09
11 | CC(COc1ccc(F)cc1)NC1CCCc2c1cnn2C (centres undefined) | -12% | 1.07
12 | COc1ccc(COC(=O)c2cnn(C(C)(C)C)c2)cn1 | -7% | 1.02
13 | Cc1ccc(OCc2cc(C(=O)Nc3ccccc3)oc2C)cc1 | -8% | 0.97
14 | O=C1N[C@H]2CN(C(=O)C3(Cc4cccc(F)c4)CCCCC3)CC[C@@H]2CO1 | -1% | 0.07
15 | CCCc1[nH]nc(-c2cccc(F)c2)c1NC(=O)[C@H](CC)c1ccccc1 | -13% | 1.92
16 | CCOC(=O)c1cnc2cc(C(F)(F)F)ccc2c1N1CCN(c2ccccc2F)CC1 | -1% | 0.09
17 | Cc1ccc(C(=O)N2[C@H](C(=O)NCc3ccco3)COC23CCN(C(=O)c2ccc4c(c2)OCO4)CC3)cc1 | -6% | 0.65
18 | COc1ccc(NC(=O)NC[C@H](C)Oc2ccccc2F)nn1 | 7% | -0.99
19 | O=C(c1ccco1)N(C[C@H]1CN(Cc2ccc(F)cc2)CCO1)C1CCCC1 | -4% | 0.41
20 | NCCn1cc(C(=O)N[C@H]2CCc3c2ccc(Cl)c3Cl)nn1 | -9% | 1.78
21 | O=C([C@@H]1CCC(=O)N1S(=O)(=O)c1ccccc1)N1CCN(c2ccccc2F)CC1 | -19% | 2.54

Row | SMILES | % Inhibition | Z score
22 | C[C@@H](C(=O)N1Cc2cnc(-c3ccccc3)nc2C1)n1cnnn1 | 5% | -0.63
23 | COc1ccc(Nc2nc(CN3C(=O)CCC3=O)cs2)cc1F | -4% | 0.69
24 | O=C(NC(c1ccccc1)c1ccccc1)c1cc(-c2ccccc2Cl)nn1-c1cccc(Cl)c1 | 0% | -0.05
25 | COCc1cc(N2CC[C@@]3(CCCN(Cc4ccccc4F)C3=O)C2)ncn1 | 0% | 0
26 | O=C(Nc1ccc(C(F)(F)F)cc1)N1CCN(c2nc(-c3ccccc3)nc3cc(Cl)ccc23)CC1 | -14% | 1.32
27 | Cc1nn(C)c(C)c1-c1ccnc(N2C[C@H]3CC[C@H]2C3)n1 | -9% | 1.07
28 | CCc1nn(C)c(NC(=O)c2cc(C(F)F)[nH]n2)c1CC | -6% | 0.99
29 | Cc1nn(Cn2nc(-c3ccc(F)cc3)c(Br)c2-c2ccc(F)cc2)c(C)c1Cl | 41% | -4.59
30 | O=C1CC[C@H](C(=O)N2CCCCCCC2)CN1CCN1CCOCC1 | 7% | -0.89
31 | Cc1nc2c(C#N)cnn2c(O)c1CC(=O)N[C@H]1CCCc2ccccc21 | -6% | 0.74
32 | CCOc1cc2c(cc1CN1CCN(C)[C@]3(CCC(=O)N(C)CC3)C1)CCC2 | -10% | 1.92
33 | C[C@]1(C(=O)NCC2CCC2)CC1(F)F | 7% | -0.82
34 | O=C(Nc1ccc2[nH]c(=O)[nH]c2c1)c1ccc(S(=O)(=O)N2CCCC2)cc1 | 33% | -3.73
35 | CC1CN(CC(F)(F)c2ccc(F)cc2)CC1N1CCOCC1 (centres undefined) | -15% | 3.06
36 | O=C(Nc1cccc(F)c1)N1CCC[C@H](CN2CCCC2)CC1 | 0% | 0
37 | CN(C)c1nccnc1O[C@H]1CCN(S(=O)(=O)Cc2ccccc2)C1 | -12% | 2.02
38 | CCS(=O)(=O)N1C[C@@H]2CN(Cc3cccc(OC)n3)C[C@]2(c2nc(C)no2)C1 | -13% | 1.69
39 | COc1cc(CO[C@H]2CCCN(C(=O)c3ccc(Cl)cc3Cl)C2)cc(OC)c1 | 2% | -0.22
40 | CC1CN(C(=O)c2ccsc2)C(C)CO1 (centres undefined) | -6% | 0.93
41 | O=c1[nH]c2cccc(Cl)c2c(=O)n1C1CC1 | 8% | -0.92
42 | CC(C)C[C@@H](NC(=O)Nc1cccc(Cl)c1)C(=O)O | -11% | 1.66

Reference: ChEMBL document CHEMBL4888484, “Replenishing the malaria drug discovery pipeline: Screening and hit evaluation of the MMV Hit Generation Library 1 (HGL1) against asexual blood stage Plasmodium falciparum ,using a nano luciferase reporter read-out” (2022)
